{"source": "PubChem BioAssay AID1347071", "about": "(National Center for Advancing Translational Sciences (NCATS), 2019)", "note": "Among all 410,000 compounds or so, about 260 (0.063%) were called active. Inconclusive means that the source gave no clear call. Such entries were picked first, then a sample of the others. Calls follow the shape of the dose curve; as a rule, active = well fitted activation curve with a large enough effect; inconclusive = small, poorly fitted or top-dose-only effect; inactive = no such curve, though single readings can be large or run the other way. Potencies of inconclusive entries are left out as doubtful fits. Potency is read from the fitted curve at half-maximal effect; tags tell the direction and shape of the fitted curve.", "data": [{"experiment": "qHTS for compounds that reverse cellular toxicity of Amyloid beta (A-beta) peptide in yeast: Primary Screen; also: nearly all actives have a fitted effect of over 55% in size", "conditions": "yeast expressing A-beta42, growth rescue, OD600, 48 h; growth rescue: at 46.1 µM (top of the series), 0% DMSO, 100% iron-clioquinol control", "in_short": "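Yeast A-beta toxicity model in growth medium with pinned compounds, 48 h at 30 C; growth read as absorbance at 600 nm. Normalized to FeCl3/clioquinol equimolar mix (positive) and DMSO (negative).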", "values": [{"smiles": "COc1ccc(-n2cnnc2SCc2cnc(-c3ccccc3)s2)cc1", "growth rescue": "inactive: 0.391%"}, {"smiles": "CCc1ccc(NC(=O)C(C)OC(=O)CCN2C(=O)C3CC=CCC3C2=O)cc1", "note": "(stereo unspecified)", "Potency": "inconclusive [activator, partial curve, poor fit]"}, {"smiles": "CCc1ccc(-n2c(Cc3ccccc3)n[nH]c2=S)cc1", "Potency": "inconclusive [activator, single point]"}, {"smiles": "CCC(=O)OCc1c(C(F)(F)F)nn(C)c1Oc1cccc(C(F)(F)F)c1", "Potency": "inconclusive [activator, single point]"}, {"smiles": "CC1CCN(C(=O)Cn2cc([N+](=O)[O-])ccc2=O)c2ccccc2S1", "note": "(stereo unspecified)", "Potency": "inconclusive [activator, full curve, poor fit]"}, {"smiles": "C=CCn1c(SCC(=O)Nc2cc(C)ccc2C)nnc1-c1cnccn1", "Potency": "inconclusive [activator, partial curve, poor fit]"}, {"smiles": "CCC(C(=O)Nc1ncc(C)s1)c1ccccc1", "note": "(stereo unspecified)", "Potency": "inconclusive [activator, partial curve, poor fit]"}, {"smiles": "Cc1ccc(S(=O)(=O)c2nnn3c2nc(NC2CCCCC2)c2sccc23)cc1C", "growth rescue": "inactive: 8.52%"}, {"smiles": "Cc1cc(NC(=O)C(C)Oc2ccc(C(C)(C)C)cc2)no1", "note": "(stereo unspecified)", "Potency": "inconclusive [activator, partial curve]"}, {"smiles": "Cc1ccccc1NC(=S)NC(=O)C1CCCCC1", "Potency": "inconclusive [activator, partial curve]"}, {"smiles": "O=S(=O)(NCC(c1ccco1)N1CCN(c2ccc(F)cc2)CC1)c1cc(F)ccc1F", "note": "(stereo unspecified)", "Potency": "inconclusive [activator, single point]"}, {"smiles": "Cc1csc(NC(=O)C2CCCN(S(=O)(=O)c3ccc(Br)s3)C2)n1", "note": "(stereo unspecified)", "Potency": "inconclusive [activator, partial curve, poor fit]"}, {"smiles": "Cc1ccc(NC(=S)N2CCN(Cc3ccccc3)CC2)c(C)c1", "Potency": "inconclusive [activator, partial curve]"}, {"smiles": "O=C(Nc1nc2ccccc2[nH]1)C1CCCC1", "Potency": "inconclusive [activator, partial curve]"}, {"smiles": "COC(=O)C1CCN(Cc2cc(=O)oc3cc(C)c(Cl)cc23)CC1", "Potency": "inconclusive [activator, single point]"}, {"smiles": "COCCn1c(=NC(=O)CSCC(=O)N2CCOCC2)sc2cc(C)ccc21", "Potency": "inconclusive [activator, partial curve, poor fit]"}, {"smiles": "Cc1nn(CC(O)CN2c3ccccc3Sc3ccccc32)c(C)c1Br", "note": "(stereo unspecified)", "Potency": "inconclusive [activator, full curve, poor fit]"}, {"smiles": "COC(=O)c1ccc(Cn2nc([N+](=O)[O-])c(Br)c2C)cc1", "Potency": "inconclusive [activator, full curve, poor fit]"}, {"smiles": "O=C(C(c1ccccc1)c1ccccc1)N1CCN(c2ccccn2)CC1", "Potency": "inconclusive [activator, partial curve]"}, {"smiles": "Cc1nn(CC(=O)N2CCN(c3ccccc3F)CC2)c(=O)c2cccn12", "growth rescue": "inactive: -31.1%"}, {"smiles": "Nc1nc(Nc2ccc(Cl)cc2Cl)nc(C(F)(F)F)n1", "Potency": "inconclusive [activator, partial curve, poor fit]"}, {"smiles": "S=C(Nc1ccc2nc(-c3ccccn3)c(-c3ccccn3)nc2c1)N1CCCCCC1", "Potency": "inconclusive [activator, partial curve, poor fit]"}, {"smiles": "O=C(c1ccco1)n1nc(NCc2ccccc2)nc1NCc1ccccc1", "growth rescue": "inactive: 25.3%"}, {"smiles": "Cc1ccc2[nH]c3c(c2c1)CN(C(=O)CN1c2ccc(F)cc2CCC1C)CC3", "note": "(stereo unspecified)", "Potency": "inconclusive [activator, full curve, poor fit]"}, {"smiles": "COc1ccc(C(C)C)cc1S(=O)(=O)NCCc1c(C)[nH]c2c(Cl)cccc12", "growth rescue": "inactive: -11.8%"}, {"smiles": "CSc1ccc(CCNC(=O)C2CCCN(S(=O)(=O)N(C)c3ccc(F)cc3)C2)cc1", "note": "(stereo unspecified)", "growth rescue": "inactive: 6.84%"}, {"smiles": "COc1cccc(/C=N/Nc2nccnc2Cl)c1O", "Potency": "inconclusive [activator, single point]"}, {"smiles": "COc1cc(C(=O)Nc2ccc(Oc3ncnc4sc(-c5ccccc5)cc34)cc2)cc(OC)c1OC", "growth rescue": "inactive: 5.84%"}, {"smiles": "COc1ccc(C2CC(=O)Oc3cc(C)c(Cl)cc32)cc1", "note": "(stereo unspecified)", "Potency": "inconclusive [activator, partial curve, poor fit]"}, {"smiles": "CCCC(=O)NC(=S)Nc1cccc(NC(=O)c2ccccc2Cl)c1", "growth rescue": "inactive: -8.13%"}, {"smiles": "COc1ccc(NC(=O)CC2C(=O)N(CCc3ccccc3)C(=S)N2Cc2cccnc2)cc1", "note": "(stereo unspecified)", "Potency": "inconclusive [activator, full curve, poor fit]"}, {"smiles": "O=C(Nc1ccc2c(c1)OCCO2)c1cncc(Br)c1", "Potency": "inconclusive [activator, partial curve, poor fit]"}, {"smiles": "COc1cccc(C(O)c2nc(-c3ccc(OC)nc3)cs2)c1", "note": "(stereo unspecified)", "Potency": "inconclusive [activator, single point]"}, {"smiles": "O=C(Nc1cccc2cccnc12)c1ccc(Cl)cc1Cl", "growth rescue": "inactive: -22.5%"}, {"smiles": "COc1ccc(N(CC(=O)N2CCN(c3cccc(Cl)c3)CC2)S(=O)(=O)c2c(C)noc2C)cc1", "Potency": "inconclusive [activator, partial curve, poor fit]"}, {"smiles": "Cc1cccn2c(=O)c3cc(C#N)c(=NC(=O)c4cccs4)n(CCCOC(C)C)c3nc12", "Potency": "inconclusive [activator, single point]"}, {"smiles": "COc1cccc(CN2CCNC(=O)C2CC(=O)N(Cc2cnn(C)c2)C(C)C)c1", "note": "(stereo unspecified)", "Potency": "inconclusive [activator, single point]"}, {"smiles": "CC1Cc2ccccc2N1C(=O)Cn1cnc2ccccc2c1=O", "note": "(stereo unspecified)", "Potency": "inconclusive [activator, full curve]"}, {"smiles": "Cc1nn(C)c2c1c(C(F)(F)F)cc(=O)n2CC(=O)Nc1ccc(F)cc1F", "growth rescue": "inactive: -12.9%"}, {"smiles": "COc1cccc(NC(=O)Cn2c(=O)n(-c3ccc(C)cc3)c(=O)c3ccccc32)c1", "growth rescue": "inactive: 1.72%"}, {"smiles": "COC(=O)[C@H](Cc1ccccc1)NC(=O)N1CCC(C)CC1", "Potency": "inconclusive [activator, partial curve]"}, {"smiles": "COc1ccc(Cl)cc1NC(=O)COC(=O)C1CCCCC1", "Potency": "inconclusive [activator, single point]"}, {"smiles": "CNC(=S)SCCOc1ccccc1", "Potency": "inconclusive [activator, partial curve, poor fit]"}, {"smiles": "FC(F)(F)c1cccc(NCc2n[nH]c(=S)n2C2CCCCC2)c1", "Potency": "inconclusive [activator, partial curve, poor fit]"}, {"smiles": "O=C(NC(=S)N(CC1CCC1)CC1CCCO1)c1cccc([N+](=O)[O-])c1", "note": "(stereo unspecified)", "Potency": "inconclusive [activator, single point]"}, {"smiles": "CCOC(=O)NC(N(O)c1cccc(Cl)c1)C(Cl)(Cl)Cl", "note": "(stereo unspecified)", "Potency": "inconclusive [activator, partial curve, poor fit]"}, {"smiles": "CCOC(=O)C(NC(=O)CC)(Nc1ccccc1)C(F)(F)F", "note": "(stereo unspecified)", "Potency": "inconclusive [activator, single point]"}, {"smiles": "N#CCC(=N)N1CCN(c2ccccc2)CC1", "Potency": "inconclusive [activator, partial curve, poor fit]"}, {"smiles": "CCOc1ccccc1N=NC1C(=O)N(C(N)=S)N=C1C", "note": "(stereo unspecified)", "Potency": "inconclusive [activator, full curve, poor fit]"}, {"smiles": "Nc1cc2c(cc1C(=O)c1ccc(Cl)cc1)OCCO2", "Potency": "inconclusive [activator, full curve, poor fit]"}, {"smiles": "COc1ccc(/C=C/C(=O)c2ccccc2)cc1COc1ccccc1F", "growth rescue": "inconclusive: 33.5% [activator]"}, {"smiles": "COc1ccc2nc(NC(=O)Cc3cccs3)sc2c1", "Potency": "inconclusive [activator, partial curve, poor fit]"}, {"smiles": "O=c1c2ccc([N+](=O)[O-])cc2ncn1CCOc1ccccc1", "growth rescue": "inactive: 0.276%"}, {"smiles": "COc1ccc(NC(=S)N2CCC(c3ccc(C)cc3)C2)cc1", "note": "(stereo unspecified)", "Potency": "inconclusive [activator, partial curve]"}, {"smiles": "O=C(C1COc2ccccc2O1)N1CCN(Cc2ccc3c(c2)OCO3)CC1", "note": "(stereo unspecified)", "growth rescue": "inactive: -4.1%"}, {"smiles": "CCCCCCSc1nsc(NC(=O)CCC)n1", "Potency": "inconclusive [activator, partial curve]"}, {"smiles": "COCCn1c(N)c(C(=O)NS(=O)(=O)c2ccc(C)cc2)c(=O)[nH]c1=O", "growth rescue": "inconclusive: -28.7% [activator]"}, {"smiles": "FCCCOc1ccc(/C=N/OCc2ccc(Cl)cc2Cl)cc1", "Potency": "inconclusive [activator, partial curve, poor fit]"}, {"smiles": "COc1cc2cc(CN(CCN3CCCC3)C(=O)Nc3ccc(F)cc3)c(=O)[nH]c2cc1OC", "growth rescue": "inactive: -0.507%"}, {"smiles": "Cc1nn(CCc2nn[nH]n2)c2nc(C(F)(F)F)cc(C(F)(F)F)c12", "Potency": "inconclusive [activator, full curve]"}, {"smiles": "CN(C)c1ccc(-c2csc(C(C)(O)c3ccc(F)c(F)c3)n2)cc1", "note": "(stereo unspecified)", "Potency": "inconclusive [activator, partial curve, poor fit]"}, {"smiles": "Cc1cc(NC(=O)CCC(=O)N(CC(=O)NCC2CCCO2)c2ccc(F)c(Cl)c2)no1", "note": "(stereo unspecified)", "growth rescue": "inactive: 1.33%"}, {"smiles": "Nn1c(SCC(=O)Nc2ccccc2F)nnc1-c1cccnc1", "Potency": "inconclusive [activator, full curve]"}, {"smiles": "CCCCN(CCCC)C1=C(C(=O)c2ccccc2)N(CC)S(=O)(=O)c2ccccc21", "Potency": "inconclusive [activator, single point]"}, {"smiles": "CCC(C(=O)NCc1ccccc1OC)c1ccccc1", "note": "(stereo unspecified)", "Potency": "inconclusive [activator, single point]"}, {"smiles": "FC(F)(F)c1cnc(Nc2ccc(N3CCOCC3)cc2)c(Cl)c1", "growth rescue": "inactive: 7.3%"}]}]}
